Results on 36 molecules are retold here after PubChem BioAssay AID1745853 (National Center for Advancing Translational Sciences (NCATS), 2022).

Holding throughout (assay): Primary Screen for Target Class Profiling of Small Molecule Inhibitors of Methyltransferases
In experiment [1] the target is Glycine N-methyltransferase (Homo sapiens) (UniProt Q14749). As to conditions: purified enzyme, MTase-Glo SAH luminescence; measured here: GNMT inhibition; at 40 µM; stronger effect = lower value. The method, boiled down:
(§1)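 Each enzyme was assayed with SAM and its substrate. SAH formation detected by MTase-Glo luminescence; single-point 40 uM screen[…].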

In experiment [2] the target is Guanidinoacetate N-methyltransferase (Homo sapiens) (UniProt Q14353). Conditions: purified enzyme, MTase-Glo SAH luminescence; measured here: GAMT inhibition; at 40 µM; stronger effect = lower value. The method, boiled down:
as §1

The target in experiment [3] is Histamine N-methyltransferase (Homo sapiens) (UniProt P50135). Conditions: purified enzyme, MTase-Glo SAH luminescence; measured here: HNMT inhibition; at 40 µM; stronger effect = lower value. The method, boiled down:
as §1

Experiment [4] has as its target Nicotinamide N-methyltransferase (Homo sapiens) (UniProt P40261). Conditions: purified enzyme, MTase-Glo SAH luminescence; measured here: NNMT inhibition; at 40 µM; stronger effect = lower value. In outline: as §1
In experiment [5] the target is Phenylethanolamine N-methyltransferase (Homo sapiens) (UniProt P11086). As to conditions: purified enzyme, MTase-Glo SAH luminescence; measured here: PNMT inhibition; at 40 µM; stronger effect = lower value. The method, boiled down: as §1

Some of the results follow. Further columns of the screen follow, without active or inactive calls.
On the % scale 0 is the no-effect control and ±100 the full control effect.

Consider `O=C(c1cn[nH]c1-c1ccc(F)cc1)N1CC2CC(C1)[C@H]1CCCC(=O)N1C2` (stereo partly specified), for which the activity change, negative = inhibition in experiment [1] was -3.61%; in experiment [2], -4.48%; in experiment [3], -0.109%; in experiment [4], -3.69%; in experiment [5] it was -1.17%.

As to `Cc1ccc(-c2nnc3ccc(-c4ccoc4)nn23)nc1`, the activity change, negative = inhibition was -38.1% in experiment [1]; -9.22% in experiment [2]; -5.14% in experiment [3]; -14.7% in experiment [4]; -13.3% in experiment [5].

Take `CN(C)c1nc(Cc2ccc(NC(=O)c3ccc4ccccc4c3)cc2)nc(Cl)c1CC(=O)O`: the activity change, negative = inhibition was -18.7% in experiment [1]; -2.21% in experiment [2]; 12% in experiment [3]; -20.4% in experiment [4]; 3.47% in experiment [5].

Regarding `Cc1ccc(Cn2c(=O)c3ccc(C(=O)NCC(C)C)cc3n3c(=O)n(Cc4ccccc4F)nc23)cc1`, the activity change, negative = inhibition in experiment [1] is 5.07%; in experiment [2] it was 0.339%; in experiment [3], 5.84%; in experiment [4] it was 2.59%; in experiment [5], 3.49%.

With `O=C1[C@H](CC[C@H](O)c2ccc(F)cc2)[C@@H](c2ccc(O)cc2)N1c1ccc(F)cc1`, the activity change, negative = inhibition in experiment [1] is -2.2%; in experiment [2], -8.25%; in experiment [3], -2.34%; in experiment [4] it was -44.4%; in experiment [5], -9.69%.

Regarding `C/C=C/C=C/[C@@H]1O[C@](O)([C@H](CC)C(=O)NC/C=C/C=C(\C)[C@@H](OC)[C@@H](C)C2OC(/C=C/C=C/C=C(\C)C(=O)c3c(O)cc[nH]c3=O)[C@H](O)[C@@H]2O)[C@H](O)[C@H](O)C1(C)C` (stereo partly specified), the activity change, negative = inhibition in experiment [1] was 2.03%; in experiment [2], 1.65%; in experiment [3] it was 7.63%; in experiment [4] it was -8.45%; in experiment [5], -3.18%.

Turning to `C[C@@H]1C[C@H]2OC(=O)[C@@]3(C)CCC[C@](C)(C23)[C@@]1(O)CCC1=CC(=O)OC1O` (stereo partly specified), the activity change, negative = inhibition is 1.83% in experiment [1]; 8.62% in experiment [2]; 7.85% in experiment [3]; -2.77% in experiment [4]; 7.04% in experiment [5].

Consider `CNC(=O)c1cc[nH]c1C1CCCN(C(=O)Cc2ccsc2)C1` (stereo unspecified), for which the activity change, negative = inhibition was -4.61% in experiment [1]; -10.8% in experiment [2]; -2.32% in experiment [3]; -2.76% in experiment [4]; -5.47% in experiment [5].

Turning to `CC1(C(=O)NC2CCCCCC2)Cn2c(cc3occc32)C(=O)N1Cc1ccccc1` (stereo unspecified), the activity change, negative = inhibition in experiment [1] was 3.85%; in experiment [2] it was 0.576%; in experiment [3], 8.27%; in experiment [4], 3.82%; in experiment [5], 4.29%.

With `Cc1cc(-c2ncc(CC(=O)Nc3ccc(-c4cnccn4)cn3)cc2C)ccn1`, the activity change, negative = inhibition in experiment [1] was -15.4%; in experiment [2] it was -8.64%; in experiment [3] it was -0.696%; in experiment [4], -33.3%; in experiment [5], -7.53%.

As to `O=C(Nc1ccccc1C(F)(F)F)N1Cc2c(sc3c2CCCC3)-n2cccc2C1c1ccccc1` (stereo unspecified), the activity change, negative = inhibition in experiment [1] is -4.46%; in experiment [2] it was 0%; in experiment [3], 1.17%; in experiment [4] it was -7.03%; in experiment [5], 5.29%.

Regarding `O=C(O)COCCN1CCN([C@H](c2ccccc2)c2ccc(Cl)cc2)CC1`, the activity change, negative = inhibition is 1.98% in experiment [1]; -6.88% in experiment [2]; 0.94% in experiment [3]; -27.7% in experiment [4]; -2.78% in experiment [5].

As to `F[C@@H]1CN(Cc2nccs2)C[C@@H]1OCc1nc2ccccc2o1`, the activity change, negative = inhibition is -4.26% in experiment [1]; -3.28% in experiment [2]; 0.465% in experiment [3]; -4.91% in experiment [4]; 5.92% in experiment [5].

In the case of `CCOCCCNC(=O)c1cc2n(n1)CC(C)(C(=O)NC1CCCCC1)N(C)C2=O` (stereo unspecified), the activity change, negative = inhibition in experiment [1] was determined as 5.28%; in experiment [2] it was 0%; in experiment [3], 2.04%; in experiment [4], 6.76%; in experiment [5], 1.35%.

As for `O=C(NCC(=O)N1CC[C@H](NC2CCC(O)(c3ccc(-c4ncccn4)cn3)CC2)C1)c1cccc(C(F)(F)F)c1` (stereo partly specified), the activity change, negative = inhibition in experiment [1] was 4.38%; in experiment [2], 5.09%; in experiment [3], 11%; in experiment [4] it was -13.9%; in experiment [5], 1.39%.

`Cc1cnc(C(=O)NCCc2ccc(S(=O)(=O)NC(=O)NC3CCCCC3)cc2)cn1`: the activity change, negative = inhibition in experiment [1] is -5.72%; in experiment [2], 2.33%; in experiment [3], -2.7%; in experiment [4], -8.36%; in experiment [5], -2.92%.

`O=C(O)c1cccc(-c2ccc(-c3cn(C(=O)N4CCCCC4Cc4ccccc4)nn3)cc2)c1` (stereo unspecified): the activity change, negative = inhibition in experiment [1] is -43.3%; in experiment [2], -23.9%; in experiment [3] it was -9.71%; in experiment [4], -45.5%; in experiment [5] it was -9.67%.

Regarding `CC1CCN(S(=O)(=O)c2ccc3c(ccn3CC(=O)NCc3ccccc3F)c2)CC1`, the activity change, negative = inhibition in experiment [1] stood at 5.47%; in experiment [2], 1.47%; in experiment [3], 2.87%; in experiment [4] it was 3.85%; in experiment [5], 2.76%.

`O=C(COc1ccccc1)NC1CCc2nnc(C3CC3)n2CC1` (stereo unspecified): the activity change, negative = inhibition in experiment [1] was determined as 0.033%; in experiment [2] it was 1.04%; in experiment [3], 1.66%; in experiment [4] it was 1.44%; in experiment [5], 0.133%.

In the case of `O=C(CCc1nnc2n(Cc3ccc(F)cc3)c(=O)c3ccccc3n12)N1CCN(c2ccc(Cl)cc2)CC1`, the activity change, negative = inhibition in experiment [1] was 2.89%; in experiment [2], 2.06%; in experiment [3], 2.51%; in experiment [4] it was 2.21%; in experiment [5] it was -2%.

For the molecule `CC(C)(N)c1cc(C(=O)N[C@@H]2CCc3ccc(Oc4ccnc5c4CCC(=O)N5)cc3C2)cc(C(F)(F)F)c1`, the activity change, negative = inhibition in experiment [2] was 6.68%; in experiment [4], -47.3%; in experiment [5], -4.1%.

For `COc1ccccc1CNC(=O)C1(C)Cn2c(cc3ccccc32)C(=O)N1C1CCCC1` (stereo unspecified), the activity change, negative = inhibition in experiment [1] is 3.98%; in experiment [2] it was 2.28%; in experiment [3], 4.31%; in experiment [4], 4.59%; in experiment [5], 1.22%.

For `CN(C(=O)c1cccc2ccccc12)C1CCCN(C2Cc3ccccc3C2)C1` (stereo unspecified), the activity change, negative = inhibition in experiment [1] was -6.34%; in experiment [2] it was -7.7%; in experiment [3], -4.09%; in experiment [4] it was -13.8%; in experiment [5], -22.2%.

Turning to `CC(C)NC[C@H](O)COc1cccc2[nH]ccc12`, the activity change, negative = inhibition is 3.63% in experiment [1]; 14.2% in experiment [2]; 12.1% in experiment [3]; -0.746% in experiment [4]; 6.43% in experiment [5].

Take `COc1ccccc1NC(=O)N1CC(C(=O)NCC2CC2)CC(c2ccccc2)C1` (stereo unspecified): the activity change, negative = inhibition is -4.65% in experiment [1]; -3.93% in experiment [2]; -2.23% in experiment [3]; -11.6% in experiment [4]; -11.6% in experiment [5].

With `CC(C)CCn1c(=O)c2ccccc2n2c(=O)n(CC(=O)Nc3ccc4c(c3)OCCO4)nc12`, the activity change, negative = inhibition in experiment [1] was -0.164%; in experiment [2] it was 1.45%; in experiment [3], 2.91%; in experiment [4], -5.83%; in experiment [5], -0.956%.

As for `Cc1ccc(Cn2c(=O)c3ccccc3n3c(-c4ccc(Br)cc4)nnc23)cc1`, the activity change, negative = inhibition in experiment [1] was -0.591%; in experiment [2], 0%; in experiment [3] it was 7.6%; in experiment [4], 7.96%; in experiment [5], 0.817%.

On to `CN1CCC(NC(=O)c2cc(-c3c(O)cc(O)cc3Oc3ccc([N+](=O)[O-])cc3)on2)CC1`, for which the activity change, negative = inhibition in experiment [1] was 1.87%; in experiment [2], 4.26%; in experiment [3], -19.4%; in experiment [4] it was -13.3%; in experiment [5], -3.04%.

For the molecule `CCC(C)NC(=O)c1ccc2c(=O)n(C)c3nnc(SCc4c(F)cccc4Cl)n3c2c1` (stereo unspecified), the activity change, negative = inhibition in experiment [1] was 1.84%; in experiment [2], 3.96%; in experiment [3], 1.39%; in experiment [4], 1.87%; in experiment [5], -4.94%.

For the molecule `COC(=O)[C@@H]1Cc2ncn(Cc3ccccc3)c2CN1C(=O)c1cccs1`, the activity change, negative = inhibition in experiment [1] is -11.7%; in experiment [2], -17.3%; in experiment [3] it was -5.93%; in experiment [4], -21.6%; in experiment [5], -13.2%.

In the case of `CCOc1ccccc1CN1C[C@@H](CO)[C@H](C2CCN(C(C)=O)CC2)C1`, the activity change, negative = inhibition in experiment [1] was 0.023%; in experiment [2], -0.873%; in experiment [3], -7.78%; in experiment [4], -5.16%; in experiment [5] it was 14.6%.

`CC1(C(=O)NCc2ccccc2)Cn2cnc(C(=O)NCc3cccnc3)c2C(=O)N1C1CC1` (stereo unspecified): the activity change, negative = inhibition in experiment [1] was -2.98%; in experiment [2] it was -1.33%; in experiment [3] it was 0.61%; in experiment [4], -2.72%; in experiment [5], 0.055%.

In the case of `COC(=O)C1=CO[C@@H](O[C@@H]2O[C@H](CO[C@@H]3O[C@H](CO)[C@@H](O)[C@H](O)[C@H]3O)[C@@H](O)[C@H](O)[C@H]2O)[C@@H]2C(CO)=CC[C@H]12`, the activity change, negative = inhibition in experiment [1] is 5.82%; in experiment [2], 4.52%; in experiment [3], 8.22%; in experiment [4], -7.37%; in experiment [5], -1.99%.

In the case of `C=C1/C(=C\C=C2/CCC[C@@]3(C)C2CC[C@@H]3[C@H](C)/C=C\[C@@H](O)C2CC2)C[C@@H](O)C[C@@H]1O` (stereo partly specified), the activity change, negative = inhibition in experiment [2] is 0.074%; in experiment [4], -14.5%; in experiment [5], -1.08%.

In the case of `NC(=O)CN1C(=O)CO[C@H]2CN(Cc3ccc(Cl)cc3)C[C@H]21`, the activity change, negative = inhibition in experiment [1] is -1.71%; in experiment [2] it was -3.42%; in experiment [3], 0.263%; in experiment [4], -3.91%; in experiment [5] it was -15.7%.

Regarding `COc1cc2ncnc(Oc3ccc(CC(=O)Nc4cnn(C(C)C)c4)cc3)c2cc1OC`, the activity change, negative = inhibition in experiment [1] was -3.73%; in experiment [2], 5.39%; in experiment [3], -0.269%; in experiment [4] it was -27.2%; in experiment [5], -4.44%.
